# Measured values as given in the supplement of paper PMC11417369.
# Some of the results follow.
# Tested on: PfHDP1 homeodomain (GST-tagged)
# Test: gcPBM binding intensity (ln(normalized median fluorescence intensity)); higher = stronger DNA binding
# How it was run: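 An Agilent 4 × 180k array carrying primer-extended double-stranded 36-bp intergenic genomic probes and negative controls received GST-tagged P. falciparum DNA-binding domains expressed in E. coli, about 25 μg on average, for 1 h. The binding buffer contained 1× PBS, 1% milk, 0.2 mg/ml BSA, 0.5% salmon testes DNA and 0.03% Triton X-100. Binding intensity is the top Masliner-normalised natural-log median intensity across replicate spots of either probe orientation, read after Alexa488 anti-GST antibody staining and a 488 nm scan.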
row,Sequence,gcPBM binding intensity (ln)
1,TGTGCACGTTCTGTGACACACATTTAAATGTGCTTA [CACACA_site176],8.91
2,ATATAACTCAAGGGCACACATATACCTTTCCTTTTT [CACACA_site4390],6.66
3,GAAACAAAATTATTTTGTACATATGACTGTAGATAT [XGTACX_site972],6.83
4,GGAACGTATATTTTCACACACTCTCAAAAGTACAAG [CACACA_site2301],6.52
5,TATATAAAACATGGGTGTACCAACATAAATCATATA [XGTACX_site2320],6.36
6,TTGAATATGGTTACATGTACGTATCAATATTTTTTA [XGTACX_site4247],6.19
7,AATTGTGCATTATATTGTACACGTGTTGTATATATT [XGTACX_site975],10.8
8,AATACACGCAGACACACACACAAAAAAAAAAAAAAA [CACACA_site6384],6.48
9,ATTTTGTTATGAAACACACACATATAAATATAAATA [CACACA_site7679],6.63
10,GTAAGAACACTTTTGTGGTTACTTAAAAGTGTATAT [GTGCAC_negctrl_site422],6.21
11,TTATTATTTTTTAACACACACATATATATTATATCT [CACACA_site4906],6.87
12,ATTTCAACAAATATAACACACAATGGATAAGAATAA [CACACA_site1974],7
13,TTAGTTTCCCAAATATGTACATAAATATAAATCATA [XGTACX_site2746],6.67
14,AATACAGTTAGAGAAAGTACACAACTAATATACATA [XGTACX_site8814],6.42
15,TGCTTATATGTTGTTACACACTAAAATAGTTAGATA [CACACA_site1277],6.67
16,ACATATATTTCAAAGTGTACGCACAATTTTTTTTAC [XGTACX_site6166],7.01
17,AACATATATATAATATGTACATAATATATATAAATG [XGTACX_site1161],6.6
18,AATATGTGAATATAATCACACACAATACGGAAACAC [CACACA_site8875],7.62
19,AAAGAAGGATAATAATGTACAAGCAAAAAAATAAAA [XGTACX_site466],7.02
20,CTTTTTTTAATGATAACACACATGTTGTGCATAGAC [CACACA_site3270],10.7
21,AAATAATTATTTATCACACATATGTATTTATATATA [CACACA_site4589],6.66
22,TACTTTACTAATATATATAGGAGAGTATACATGAAA [CACACA_negctrl_site63],6.8
23,ATAAAGTAGATATTTTGTACGCAGGTTGTATATATT [XGTACX_site1464],6.81

row,Sequence,gcPBM binding intensity (ln)
1,GGAATTATAATAAATGGTACACATAAAAAAAAAAAA [XGTACX_site8343],6.59
2,ATTATGTTATATACACGTACGTGTGCTTTATAATTA [XGTACX_site2728],7.1
3,TAATAAATAGGACACACACACATATATATATATTAT [CACACA_site4891],6.91
4,ATTCCACCTTAAAACTGTACTTTCTCAATCTTTTAT [XGTACX_site796],6.55
5,CATATATAAATATGTATGCACTTTAACAAAATGTAT,7.25
6,ATATTTATTTATATGTGTACTTATGTTTATATAAAA [XGTACX_site4250],6.51
7,AGTGTTAAAAATGAGGGTACATATAAAATACAGTTC [XGTACX_site457],6.42
8,ACAGGATTGGTTCAAACACACATATTATATGACTAT [CACACA_site4536],6.45
9,TAATCATTTTAGCTTACACACAAAATTTGGTTATAA [CACACA_site5604],6.29
10,TTTCTTTTTTTTTTTTGTACATATTTTAATTATTTT [XGTACX_site8676],6.95
11,TATTATATATATAACTGTACGTTTATAATATAAAAA [XGTACX_site3778],6.28
12,TATTTTAATTAATATACACACGCTTATATATATATA [CACACA_site7909],8.8
13,TACAAACTATGATGCACACATATATATCTGTATCCA [CACACA_site4809],9.63
14,AAGCTTTGGTGTTATGCATGCAATTAAACTATTAGT [TGCATGCA_site277],6.91
15,AATAATATATAATAATGTACAAAAAAAAAAAAAAAA [XGTACX_site4158],6.51
16,TTTTATTTTTTAGTAGTACACACTTTTTGTACCTTT [CACACA_site599],6.6
17,AGTTTTATATAAGCTTGTACTTAATATTATTAAGTA [XGTACX_site5919],6.59
18,CAAACAAACGGACACACACACACACCCAAAAATGAT [CACACA_site5363],6.77
19,AAAAAAAAAAATCGCTGTACTTCTAAAGGTGTGTTA [XGTACX_site843],6.11
20,TTTGATAAATTATACACACACAATATATATAAAATA [CACACA_site2023],6.66
21,ACGGACTTAAAATACACACACACCAAAAAAAAAAAA [CACACA_site7304],6.59
22,ATATATACTTATATTTGTACACAAAGGTATCTCTAG [XGTACX_site3805],6.4
23,GGAATAATAAAATTATGTACATAAGAATCATATACT [XGTACX_site6810],6.45

row,Sequence,gcPBM binding intensity (ln)
1,AAATAATACCAAATGTGTACTTATTTCACTAATAGA [XGTACX_site7571],6.29
2,AAAAGATAAAAAGAAGTGCATAATAGGAACAAATAT [GTGCAC_site9717],9.22
3,TATATGTGGGTTTTTTTTATGTGTTTTTCTTTTTTT [CACACA_negctrl_site936],7.04
4,CATTTCATTAATAAATGTACTTGTGAAGAGAAAAAG [XGTACX_site3115],6.54
5,ACAAAATTTACAAAATGTACAAAATATACAAAATGT [XGTACX_site3543],6.22
6,ATTTATATTTAATATACACACATTATTTTTTTATAT [CACACA_site574],6.86
7,ATCACATTCCACGGTACACACTAAAAGAAAAATCAG [CACACA_site5907],6.61
8,AGAGTACAAGTAAATACACACATATATATGAAAATA [CACACA_site1079],6.98
9,TTTACATTTTAGGAAGTGCATATAATAAATACTATC,8.8
10,CACATATATACACATACACACACACCCATACACCCA [CACACA_site8505],7.22
11,TACATAAATACATACACACACATATAACCAATGTAG [CACACA_site5243],6.85
12,TATAATATGACAAGAAGTACATATATTTACATATAT [XGTACX_site1571],6.19
13,ATATAATATTTTAGAGTGCACCGATAACAATAAATA [GTGCAC_site9754],9.99
14,TTACAAAAAAAAAGGCGCGGATGGGGGCAATAGCAA [CACACA_negctrl_site238],6.28
15,TTTATATAGAAACACACACACAAAAAAAAAAAAAAA [CACACA_site2646],6.54
16,CAAAAAAAAAAAAAAACACACATTAAATTATAAAGA [CACACA_site2613],6.18
17,TAATGTTTCAAAATTTAATATACTACAAATATTATA [TGCATGCA_negctrl_site336],5.97
18,ATGAACATCCAATATACACACATATATATTTATATT [CACACA_site829],6.87
19,TGTTATTCTGCATATACACACAAATAACAATTTAAA [CACACA_site6943],6.92
20,TAAGATATAAAAAATGTGCACATTAAAGTATTAATT,10.5
21,TCTTATGATGGAATGTTAAATATTACATTTTGTTTA [TGCATGCA_negctrl_site503],6.03
22,TACTTTATTTTTTATACACACACAATATGTATATAT [CACACA_site9184],7.12
23,GTATTTCTTTAATATACACACACCAAAACAAAAAAA [CACACA_site579],6.98

row,Sequence,gcPBM binding intensity (ln)
1,TTCTACATGAAGTTATAAATTAATATTTTAATTTAT [XGTACX_negctrl_site134],5.93
2,AATAAATAAATAAGTACACACATATAAATATAAATA [CACACA_site6271],6.42
3,CAAGTATTATATTGCGCATGCAAAGAAGGACACAAA [TGCATGCA_site1024],7.74
4,TTATCTAGTACATACATACACACAACCATGTTATGA [CACACA_site3988],6.52
5,ATATATATATATATATATATAATAAAAGATCATTTA [XGTACX_negctrl_site371],9.42
6,ATAATAAAAAGAAAAAGTACAAATGATTATGTTTGA [XGTACX_site3615],7.26
7,TAGATATATAAATACACACACATACACAAAAAAAAA [CACACA_site7652],6.97
8,TATGAATACATTTGTTGTACTTAAATTTCCTTTATT [XGTACX_site5374],6.44
9,TTACTTTTTTTTTTATGTACTTATATTTTTTACACT [XGTACX_site3503],6.9
10,AAATAATTTATGCATACACACATATATATATATATA [CACACA_site4020],9.28
11,TTTTTTATTATTATTATTTTTTATGTATAATAATGT [CACACA_negctrl_site631],6.37
12,TATAAATATCTGAATTGTACAGGTGAAAAAAAAAAT [XGTACX_site1867],6.93
13,ATATATATATATATTTATTCATATATTTTTTGTCTT [TGCATGCA_negctrl_site58],9.19
14,TTTTTATTTTTTCAGTGTACATTTAAATTATCTTAT [XGTACX_site3905],8.08
15,TAAAGAAACGCATCGACGCACACTACAAAATAAAAA [CACACA_site1348],6.39
16,GTACAATCATATACTACATGCAGTTTTTTTTATTGA [TGCATGCA_site230],6.83
17,AAATAAATACATAATACATGCATATTTAATATATAG [TGCATGCA_site135],6.28
18,TTTTCTTTTTCTTGTACACACATAATATGGATGAAA [CACACA_site808],7.05
19,AATTTTTTTTAATGATGTACTTTTTGAAAATAAACT [XGTACX_site4221],5.99
20,TAAATTATTATCCCCTCACACACAAAAATAAAAAGA [CACACA_site2886],7.46
